Measurements from the RNAGym collection of RNA variant scans (doi:10.7554/elife.90254).
Read counts are not given, so values of variants with three or more changes are uncertain.

B1: OR4K15 (parent)
chain: GUUAACGGUCAUAGGCCAUGGAAACUAGGAGCACCAUUUCGCUGCCAGUGAAGAAAUGAACAAAGAAAAUCUGGGCCAGGCAGGCAUCAAAAGAAAUAGUCUUGCGCUCAACCAGAAAGUCUGUAAUCAUUUUAAGGGUA

Variants of: B1
Assay: self-cleavage, relative activity (ratio to wild type); higher = more cleavage; in vitro, sequencing; the parent is a self-cleaving ribozyme

| Variant | self-cleavage |
| --- | --- |
| A52G A54C A86G | 1.46 |
| G50A A68G U122A | 0.46 |
| A51G A86G U87C U102C | 1.33 |
| A51G A82G A94G G137U | 0.5 |
| A51U A94G U127A | 1.66 |
| U49C G53U A56G U57C A135G | 0.92 |
| A51U A68U U100C A111G A140G | 0.02 |
| A51G A90G U133A | 1.02 |
| U49C A55G A89G A95U U127C | 0.84 |
| A51G A78G A134U | 0.12 |
| A51G U72A A78U | 0.35 |
| U49A A69G U87C U100C G104C U108C A117G A118G | 0 |
| A51U A63G U108C | 0.02 |
| A51U A56G A92G | 1.01 |
| U49C A94G U103C U120C | 0.42 |
| A47U A62G U72C A82G U103C A111G A116U | 0 |
| A51U A82G U127C U130C | 0.15 |
| A47U U70A A91G A129G | 0.11 |
| U49C U70C G84A A114G | 0.08 |
| A51U U132C A135U | 1.72 |
| U49C A56G G75A | 0.16 |
| A47U U72C U97C U100C U103C | 0.17 |
| G50A U122C U127A | 1.11 |
| A51G A68G A78G U127C | 0.02 |

| Variant | self-cleavage |
| --- | --- |
| A47U U87C U120C | 0.26 |
| A51U A52G A92G A114G | 0.35 |
| A51G U108A U131C | 0 |
| A51G A63G U130C | 1.46 |
| A47U A63U A117G | 1.47 |
| U49C U57C A86G | 0.82 |
| U49C A56G U57C A114G A118G U131C | 0.07 |
| A47U A91G A114U | 0.04 |
| A47U A126U U139C | 0.93 |
| U49C A78U A90G | 0.27 |
| A51U G53A A78C | 0.47 |
| U49C A54G C113A U124C A134C | 0.04 |
| A47U U122C U131C U139A | 0.1 |
| A51G A111G A126G | 0.04 |
| A51U G80A U130C | 0.15 |
| G48A A60G A68G A69G A135G | 0.49 |
| A51G A126G U132C | 0.6 |
| U49C A51U A91G U108C | 0.01 |
| U49C A68G U103C U124C | 0.57 |
| A52C A62U U102A U132C | 0.54 |
| A51G A62G U103A | 0.79 |
| U49C A55G A95G | 1.11 |
| G48A A52G A56G | 1.43 |
| A51G A52G C71A | 0.21 |

| Variant | self-cleavage |
| --- | --- |
| A51G A52G G115A | 0.04 |
| A51G G80A U108C | 0.02 |
| A51G A59G U108A | 0.02 |
| A47U A64G U72A A114G A116G A117G | 0.02 |
| A51G A59G U72A A129G | 0.14 |
| U49C A82G U100G | 0.77 |
| A51G U103G U132C | 0.02 |
| G48A A51U U120C A126U | 0.47 |
| U49A A78G A92G | 0.22 |
| U49C U87C U102G U139A | 0.12 |
| A51G A110G C112U C121A | 0.02 |
| G50A A52G U103C A110U | 0.99 |
| U49A A82G A126G | 0.28 |
| U49A A56G A86G U131C | 1.28 |
| U49C A64G U100A U122C | 1.08 |
| A51G C76U U97C U120A U131C | 0.01 |
| G50A A52G A67G | 0.43 |
| U49A A69G U133A | 0.72 |
| G48A A60G A68G U70A U131C | 0.37 |
| U49C A82U A91C A95G U97C | 0.04 |
| A51G A64G U100C U133A | 1.61 |
| U49C A129C U130A | 0.9 |
| A51G C61U A64U A96G C128U | 1.29 |
| A51G A55G U87C U122C | 1.07 |

| Variant | self-cleavage |
| --- | --- |
| A51U A56G A64G A96G | 1.62 |
| A51C G119U A126G | 1.13 |
| A51C A59G A82U | 0.12 |
| A51U U72G G99A U132A | 0.08 |
| U49C U100C U127A | 2.74 |
| U49C A66G A90G U130C | 0.12 |
| U49C A91G A114U A134G | 0.06 |
| U49C U57C U132C A135G | 0.95 |
| A51G A59G G65U U100C U122A U133C | 1.03 |
| A47U A67G U102A | 0.48 |
| U49C A129G U131C | 1.29 |
| A51G A98C U131C | 1.07 |
| A51G A92G U97C A111G | 0 |
| U49C U87A U102C | 1.09 |
| G48U A56G A69G | 1.24 |
| U49C U70C A92G A111G A114U | 0.01 |
| U49C A82C A95G | 0.26 |
| U49C U102A U130C | 0.28 |
| A51G A62G U97A | 0.85 |
| U49C U102C U108A A117G | 0.01 |
| U49C A63U A96U U108C | 0 |
| A51G A62G C88U | 1.47 |
| A47U A90G A117G A135U | 0.74 |
| A47U A60G U100C | 2.04 |

| Variant | self-cleavage |
| --- | --- |
| U49C A92G A111G | 0.01 |
| U49A A52G U87C A126G | 0.52 |
| G50A A98G U124A | 0.26 |
| A51G A95G U108C | 0.01 |
| G50A A117G U122C | 1.24 |
| A51G U102C U108C | 0.01 |
| A51G U97C A110G A135G | 0.2 |
| A51G A111G U130C A135G | 0.03 |
| U49C A114U G123A | 0.12 |
| A51G A66G A91G | 0.79 |
| U49A A59U U87C A116U U131C | 0.24 |
| A51G A54G A117G | 0.82 |
| A51U A67G A68G U103G G106A | 0.02 |
| A51G A96G U131C | 1.05 |
| A51U G115A A116U U124C | 0.01 |
| A51G A62G A95G | 1.85 |
| A51G A95G A96C A117G | 0.61 |
| A51G A82G A96G | 0.62 |
| A51G U57A A116G | 0.46 |
| A51G A52U A78G U124A | 0.13 |
| U49A A62G A110G U132C U133C | 0.07 |
| U49C A52G U70C A95C | 0.31 |
| A51U A110G A129G | 0.22 |
| U49C A91G U132C | 0.91 |

| Variant | self-cleavage |
| --- | --- |
| A51C A78G A116G | 0.06 |
| A51U A66U U100C A117U A118G | 1.78 |
| A47U A78U U100C | 1.25 |
| U49A A118G U130A | 0.28 |
| A51G U87A U102C | 2.17 |
| U49C A59G U72C A94U | 0.24 |
| U49C A66U A78U | 0.22 |
| A51G A60G A118G | 0.85 |
| U49C A67U U122A | 0.96 |
| G50A U87C A134G | 1.67 |
| A51G U100C A110U | 1.73 |
| A51U A64G A116G | 1.38 |
| A51G A68G U120G | 2.07 |
| U49A A59U A66G C88U A117G | 1.63 |
| A51G A55U A59G | 1.4 |
| A51U A94U U122C | 1.72 |
| U49C A54G A78G | 0.32 |
| U49C A51U U70C U133C | 0.17 |
| A51U U72A A118G | 0.07 |
| A47U A64G C71A | 0.44 |
| A51G U100C U108A A116G | 0 |
| A51U U87C A114U U139C | 0.04 |
| A51G A67G U70C A91G U132C | 0.56 |
| A47U A91U A95G | 1.67 |

| Variant | self-cleavage |
| --- | --- |
| A47U A89C G106A A111C | 0 |
| U49C U100C G104A | 0.03 |
| A47U U122C U132C | 0.19 |
| U49A A95G A111G | 0.02 |
| U49C C61U A94G U100C A126G U132C | 2.48 |
| U49C A69G A78C U87A A96U | 0.18 |
| A51G G119U G136U | 1.12 |
| A51U A60G A111G A129U | 0 |
| A47U A95G A98U U102C A118G U122A U132C | 2 |
| U49C U57A U103G A111G | 0.01 |
| U49A A56G A118C | 0.67 |
| U49C U108A A140G | 0.02 |
| A51G A86G U130C | 0.44 |
| A51U A118G U122A | 1.19 |
| U49C A94G A135G | 1.96 |
| A47U A91G U103C | 0.56 |
| A51G A55G A69G G104A | 0.01 |
| U49C U72A A82G A116G | 0.09 |
| A51G U70C A82G | 0.63 |
| U49C A68G A117G A129U U131C | 0.86 |
| A51G A63G A66U U120C A135G | 1.57 |
| A51U C85A U131C | 1.19 |
| A51G U100C A117G | 2.54 |
